Reference: PubChem BioAssay AID1645882 (National Center for Advancing Translational Sciences (NCATS), 2021)
About 120 (0.75%) of roughly 16,000 compounds were called active. Roughly 4% stayed inconclusive and do not appear here. The call rests on the fitted dose curve; in most records, active means well fitted inhibition curve with a large enough effect; inconclusive means small, poorly fitted or top-dose-only effect; inactive means no such curve, though single readings can be large or run the other way. This is one part of the list.

biological target: Rap guanine nucleotide exchange factor 3 (Homo sapiens) (UniProt O95398); assay: Validation qHTS for antagonist of cAMP-regulated guanine nucleotide exchange factor 3 (EPAC1); conditions: EPAC1 Rap1B-BODIPY-GDP exchange, fluorescence; series mostly up to 150 µM; activity change, negative = inhibition: at the top concentration;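 further: plate controls were DMSO for no effect and ATA control for full effect; nearly all actives have a fitted effect of over 75% in size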
How it was run: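 Nucleotide exchange followed as fluorescence loss when BODIPY-GDP leaves Rap1B (480 nm excitation, 540 nm emission), read at 5 min intervals over 30 min. Reaction: 100 nM EPAC1, 250 nM RAP1B-BODIPY-GDP, 50 uM GDP; ATA and DMSO define normalization.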

UniProt O95398, sequence (O95398 whole entry, looked up): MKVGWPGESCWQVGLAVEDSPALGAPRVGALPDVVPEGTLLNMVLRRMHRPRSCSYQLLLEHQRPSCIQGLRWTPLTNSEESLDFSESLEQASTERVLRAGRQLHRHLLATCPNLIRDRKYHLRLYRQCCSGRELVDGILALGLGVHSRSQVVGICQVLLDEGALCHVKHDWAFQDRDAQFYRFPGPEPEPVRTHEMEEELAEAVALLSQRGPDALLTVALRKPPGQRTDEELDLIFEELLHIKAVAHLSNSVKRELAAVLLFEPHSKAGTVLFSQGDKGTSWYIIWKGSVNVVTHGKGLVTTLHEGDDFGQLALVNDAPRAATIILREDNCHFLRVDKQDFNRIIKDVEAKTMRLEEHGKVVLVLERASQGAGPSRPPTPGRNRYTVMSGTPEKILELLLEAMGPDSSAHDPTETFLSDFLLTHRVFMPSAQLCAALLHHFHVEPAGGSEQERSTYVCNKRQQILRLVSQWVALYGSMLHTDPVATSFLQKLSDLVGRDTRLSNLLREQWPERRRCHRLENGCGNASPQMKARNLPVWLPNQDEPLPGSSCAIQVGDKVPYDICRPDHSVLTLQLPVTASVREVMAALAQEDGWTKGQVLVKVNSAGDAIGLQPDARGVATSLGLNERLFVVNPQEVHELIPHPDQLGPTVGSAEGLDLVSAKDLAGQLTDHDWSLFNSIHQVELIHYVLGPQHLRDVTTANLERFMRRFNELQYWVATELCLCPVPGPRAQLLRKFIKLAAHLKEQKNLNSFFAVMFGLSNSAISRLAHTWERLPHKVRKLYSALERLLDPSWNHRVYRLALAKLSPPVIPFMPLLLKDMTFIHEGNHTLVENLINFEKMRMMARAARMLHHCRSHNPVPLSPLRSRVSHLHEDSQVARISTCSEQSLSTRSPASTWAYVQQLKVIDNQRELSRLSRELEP

| Compound | activity change, negative = inhibition |
| --- | --- |
| C=C[C@](C)(O)CCC=C(C)C | inactive: 13.3% |
| COc1cc(-c2ccc(Cl)cn2)cc2c1OCCN(S(=O)(=O)C[C@]13CC[C@H](CC1=O)C3(C)C)C2 | inactive: -1.22% |
| Cc1cc(NS(=O)(=O)c2ccc(N)cc2)no1 | inactive |
| COC(=O)C[C@H]1c2cc(C(F)(F)F)ccc2S(=O)(=O)N1Cc1ccccc1 | inactive: -3.42% |
| c1csc(CNc2nc(-c3ccoc3)nc3ccccc23)c1 | inactive: -5.19% |
| CNC1C(O)C2OC3OC(C)CC(=O)[C@@]3(O)O[C@H]2[C@H](NC)C1O (stereo partly specified) | inactive: 29.1% |
| O=C(c1ccc2c(c1)OCCO2)N1CCCCC1 | inactive: -3.66% [at 75.8 µM] |
| Cc1nc(C)c(C(=O)N2CCc3c(cnc(C)c3CNC(=O)c3cncs3)C2)s1 | inactive: 9.19% |
| c1cncc(-c2nc(NCc3cccs3)c3ccccc3n2)c1 | inactive: 8.77% |
| O=C(O)c1ccccc1Nc1cc(Cl)ccc1C(=O)O | inactive: 23.6% |
| CSCC[C@H](NC(=O)[C@H](Cc1ccc(OS(=O)(=O)O)cc1)NC(=O)[C@@H](N)CC(=O)O)C(=O)NCC(=O)N[C@@H](Cc1c[nH]c2ccccc12)C(=O)N[C@@H](CCSC)C(=O)N[C@@H](CC(=O)O)C(=O)N[C@@H](Cc1ccccc1)C(N)=O | inactive: 29.4% |
| NS(=O)(=O)c1cc2c(cc1Cl)NC(CSCc1ccccc1)=NS2(=O)=O | inactive |
| Cc1cc(C(=O)Nc2ccccc2-c2nc(CNC(=O)c3cc4ccccc4cn3)c(C)o2)c(C)o1 | inactive: 10.3% |
| CS(=O)(=O)N1CCC2(CC1)CN(Cc1ccc(C#N)cc1)C2 | inactive: 2.98% |
| COc1cc(O)c2c(c1)C(=O)c1cc(C)cc(O)c1C2=O | inactive: 7.05% |
| Cc1nc2cc(NC(=O)[C@@H]3C[C@@H](Sc4ccccn4)CN3Cc3ccc(F)cc3F)ccc2s1 | inactive: 32.8% |
| CCOC(=O)n1ccn(C)c1=S | inactive |
| O=C1OC(=O)C2C3CCC(O3)C12 (stereo unspecified) | inactive |
| O=P(O)(O)OP(=O)(O)O | inactive: 5.53% |
| c1cncc(CNc2nc(-c3ccc4c(c3)OCO4)nc3ccccc23)c1 | inactive: -1.58% |
| Cc1cnc(C(=O)N2CCOc3ccc(CN4CCCC(C(=O)c5cccnc5)C4)cc3C2)[nH]1 (stereo unspecified) | inactive: 4.41% |
| CC1(O)CCC(C(C)(C)O)CC1 (stereo unspecified) | inactive: 8.56% |
| COC(=O)C(C)(N)Cc1ccc(O)cc1 (stereo unspecified) | inactive: -9.27% [at 75.8 µM] |
| C[C@@H](Cc1ccccc1)Nc1ncnc2c1ncn2[C@@H]1O[C@H](CO)[C@@H](O)[C@H]1O | inactive: 34.7% |
| Cc1ccccc1-c1cncnc1NCc1ccccc1 | inactive: 7.26% |
| CC(C)CN1CCC2(CC1)CCN(C(=O)c1csnn1)CC2 | inactive: 6.56% |

| Compound | activity change, negative = inhibition |
| --- | --- |
| CC(=O)Nc1ccccc1-c1nc(CNC(=O)c2ccc(-n3cccn3)cc2)c(C)o1 | inactive: 19.1% |
| CCC(=O)Oc1ccc2c(c1)CC[C@@H]1[C@@H]2CC[C@]2(C)[C@@H](OC(=O)CC)CC[C@@H]12 | inactive: 26.1% |
| C#Cc1cccc(C(=O)NCc2nc(-c3ccccc3NC(=O)C3CCCO3)oc2C)c1 (stereo unspecified) | inactive: 9.35% |
| Cn1c(=O)c(-c2cccc(C#N)c2)nc2cnc(Oc3ccccc3)nc21 | inactive: 5.55% |
| CC(C)c1c(O)ccc2c1CCC1[C@@](C)(CO)CCC[C@@]21C (stereo partly specified) | inactive: -22.1% |
| Cc1cc(C=O)cc(C)c1[N+](=O)[O-] | inactive: 20.4% |
| Cc1noc(C)c1C(=O)N1CCC2(CCN(Cc3ccc(C#N)cc3)CC2)CC1 | inactive: 1.55% |
| Cc1c(CN2CCOc3c(O)cc(-c4nc5ccccc5s4)cc3C2)cnn1C | inactive: 12.4% |
| C=C[C@@H](C1=CC(=O)C(OC)=C(OC)C1=O)c1ccccc1 | inactive: 1.12% |
| Cc1ccnc2c(Cl)ccc(Cl)c12 | inactive: 15.2% |
| Clc1ccccc1-c1cncnc1NCc1cccs1 | inactive: 14.2% |
| C=C1CCC(O)C/C1=C/C=C1\CCC[C@@]2(C)C(C(C)/C=C/C(C)C(C)C)CC[C@@H]12 (stereo partly specified) | inactive: 14% |
| COc1ccc(C(=O)N2CCCC(c3nc(SCc4ccccn4)ncc3C)C2)cc1F (stereo unspecified) | inactive: -0.24% |
| COc1ccc(CNc2ncncc2-c2cccnc2)c(OC)c1 | inactive: 0.447% |
| O=C1CN(/N=C/c2ccc(-c3ccc([N+](=O)[O-])cc3)o2)C(=O)N1 | inactive: -14.7% [at 201 µM] |
| Cc1cnc(CNc2nc(-c3ccccc3C(F)(F)F)nc3ccccc23)cn1 | inactive: -7.09% |
| CCNc1ncc2nc(-c3ccc(F)cc3)c(=O)n(CCOC)c2n1 | inactive: 13.5% |
| CCCS(=O)(=O)NCc1c(C)ncc2c1CCN(C(=O)/C=C/c1ccccc1)C2 | inactive: 8.36% |
| CCN(CC)CCOC(=O)C(Cc1cccc2ccccc12)CC1CCCO1 (stereo unspecified) | inactive |
| O=c1c(-c2ccccc2)nc2cnc(N3CCOCC3)nc2n1CCc1ccccc1 | inactive: 10% |
| C[C@H](CC[C@@H]1OC1(C)C)C1CC[C@H]2[C@@H]3CC=C4C[C@@H](O)CC[C@]4(C)[C@H]3CC[C@]12C (stereo partly specified) | inactive: 14.3% |
| CC1(C)S[C@@H]2[C@H](NC(=O)C(C(=O)O)c3ccccc3)C(=O)N2[C@H]1C(=O)O (stereo partly specified) | inactive: 18.2% |
| O=C1CCC[C@@H]2C[C@@]3(C[C@@H]4CCN1[C@H]24)Nc1cc([N+](=O)[O-])ccc1NC3=NC1CCCCC1 | inactive: 2.38% |
| Cc1nc(C)c(CC(=O)N2CCOc3ccc(CN4CCOCC4)cc3C2)s1 | inactive: 15.1% |
| Cn1c(C(c2cc3ccccc3n2C)c2cc3ccccc3n2C)cc2ccccc21 | inactive: -25.8% |
